Structures are written as SMILES. Among all 310,000 compounds or so, about 2,200 (0.71%) showed an effect of 50% or more. Effects have a minus sign here. This is one part of the list.

The target in this test is human ether-à-go-go-related gene (hERG) potassium channel (human, UniProt Q12809). The test is described as follows: primary screen, population patch clamp on CHO cells stably expressing hERG.
Sequence of human ether-à-go-go-related gene (hERG) potassium channel (Q12809 whole entry, looked up): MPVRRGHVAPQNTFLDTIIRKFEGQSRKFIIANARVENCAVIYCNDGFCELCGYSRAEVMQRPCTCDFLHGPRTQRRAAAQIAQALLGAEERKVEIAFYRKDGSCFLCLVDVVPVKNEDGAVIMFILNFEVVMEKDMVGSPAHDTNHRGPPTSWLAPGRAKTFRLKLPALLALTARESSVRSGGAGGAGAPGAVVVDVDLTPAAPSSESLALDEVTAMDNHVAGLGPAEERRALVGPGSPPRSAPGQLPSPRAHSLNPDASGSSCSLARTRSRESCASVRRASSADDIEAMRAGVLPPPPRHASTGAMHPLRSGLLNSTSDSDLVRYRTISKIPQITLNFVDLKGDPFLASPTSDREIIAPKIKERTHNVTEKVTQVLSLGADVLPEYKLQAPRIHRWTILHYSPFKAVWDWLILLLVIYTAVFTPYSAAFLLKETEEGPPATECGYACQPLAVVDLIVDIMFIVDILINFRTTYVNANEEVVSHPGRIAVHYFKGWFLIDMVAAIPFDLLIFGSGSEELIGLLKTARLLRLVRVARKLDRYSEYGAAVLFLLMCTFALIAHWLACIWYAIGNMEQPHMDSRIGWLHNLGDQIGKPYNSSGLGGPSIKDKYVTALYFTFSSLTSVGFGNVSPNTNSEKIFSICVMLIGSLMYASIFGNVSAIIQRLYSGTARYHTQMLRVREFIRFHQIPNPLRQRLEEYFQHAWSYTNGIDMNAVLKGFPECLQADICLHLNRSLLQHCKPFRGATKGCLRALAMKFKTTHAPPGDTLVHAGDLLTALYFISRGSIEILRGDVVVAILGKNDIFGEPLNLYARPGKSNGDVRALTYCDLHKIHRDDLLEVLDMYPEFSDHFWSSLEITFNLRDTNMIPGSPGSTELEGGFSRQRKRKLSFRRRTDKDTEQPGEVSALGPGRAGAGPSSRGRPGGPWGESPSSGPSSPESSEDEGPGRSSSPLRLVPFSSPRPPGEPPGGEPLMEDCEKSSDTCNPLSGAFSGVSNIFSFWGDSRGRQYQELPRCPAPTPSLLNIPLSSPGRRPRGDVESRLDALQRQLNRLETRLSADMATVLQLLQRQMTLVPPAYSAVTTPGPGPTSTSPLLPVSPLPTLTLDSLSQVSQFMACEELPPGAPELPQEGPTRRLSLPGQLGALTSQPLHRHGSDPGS
In the case of `COc1ccc2ccccc2c1CNC(=O)CC1C(=O)NCCN1CC(C)C` (stereo not drawn), the “hERG current change (%, negative = inhibition) at 1uM” value is on record as -4.95%.
With `CCOC(=O)C1CCN(c2ccc(Cl)nn2)CC1` the figure was 0.0696%; with `COc1ccc(Nc2cc(C)nc(N)n2)cc1`, 10.4%.
For the molecule `CC1CCN(CCn2c(=S)[nH]c3ccccc3c2=O)CC1`, the “hERG current change (%, negative = inhibition) at 1uM” value was 1.9%.
Regarding `COc1ccc(C(=O)NC2CCN(C(=S)Nc3cc(C)cc(C)c3)CC2)cc1`, the “hERG current change (%, negative = inhibition) at 1uM” value is recorded as 11.8%.
With `O=C(O)CSc1ccccn1` the figure was 15.3%.
As to `Cc1ccc(C)n1-c1nnc(N2CCC(C(=O)NCCCN3CC(C)CC(C)C3)CC2)s1` (stereo not drawn), the “hERG current change (%, negative = inhibition) at 1uM” value was -3.35%.
For `CC(NC(=O)c1ccco1)C(=O)N1CCN(c2cccc(C(F)(F)F)c2)CC1` (stereo not drawn), the “hERG current change (%, negative = inhibition) at 1uM” value turned out to be 6.52%.
In the case of `COc1ccc(C(=O)O)cc1S(=O)(=O)NCCN(C)C`, the “hERG current change (%, negative = inhibition) at 1uM” value is recorded as 6.05%.
Regarding `C=CCNC(=O)c1cc(-c2ccc(Br)cc2)on1`, the “hERG current change (%, negative = inhibition) at 1uM” value is listed as -4.93%.
For `O=c1c(O)c(-c2ccc3c(c2)OCO3)oc2ccccc12`, the “hERG current change (%, negative = inhibition) at 1uM” value turned out to be 2.62%.
Consider `CCCCN(CCCC)CCCNC(=O)CN1C(=O)COc2ccc(S(=O)(=O)N3CCC(C)CC3)cc21`, for which the “hERG current change (%, negative = inhibition) at 1uM” value is -19.8%.
Turning to `CN(Cc1cn(-c2ccccc2)nc1-c1ccc(Cl)cc1)C(=O)CCC(=O)O`, the “hERG current change (%, negative = inhibition) at 1uM” value was determined as 7.26%.
Regarding `Cc1ccccc1N1C(=O)c2cccc3c(N(C)CCO)ccc(c23)C1=O`, the “hERG current change (%, negative = inhibition) at 1uM” value is recorded as -18.5%.
With `O=C(CNS(=O)(=O)c1ccc(F)cc1)N1CCOCC1` the figure was 13.6%; with `Cc1cc(C)c(NC(=O)COC(=O)C2CCN(c3ccc(C(F)(F)F)cn3)CC2)c(Cl)c1`, 7.15%; with `COc1ccc(NC2CCCN(C(=O)c3cccc(C)n3)C2)cc1OC` (stereo not drawn), 11.1%.
For `CCCN1C(=O)/C(=C/c2ccc(OCc3ccc(C(=O)O)cc3)c(OC)c2)NC1=S`, the “hERG current change (%, negative = inhibition) at 1uM” value stood at 11.9%.
With `COc1ccc(O)c(-c2cc(-c3cccs3)[nH]n2)c1`, the “hERG current change (%, negative = inhibition) at 1uM” value was determined as 4.98%.
On to `CCN(CC)CCCN(Cc1cc2cc3c(cc2[nH]c1=O)OCO3)C(=S)Nc1ccc(OC)cc1`, for which the “hERG current change (%, negative = inhibition) at 1uM” value came to 0.996%.
In the case of `C(=C\c1ccccn1)/c1ccccn1`, the “hERG current change (%, negative = inhibition) at 1uM” value turned out to be 9.49%.
Take `CCOC(=O)C1CCN(C(=O)CN2C(=O)C(CC)Oc3ccccc32)CC1` (stereo not drawn): the “hERG current change (%, negative = inhibition) at 1uM” value amounted to 5.67%.
As to `COc1ccc(C(=O)Nc2ccnn2C2CCN(Cc3ccn[nH]3)CC2)cc1`, the “hERG current change (%, negative = inhibition) at 1uM” value is 9.17%.
With `Cc1ccc(NC(=O)CCNC(=O)c2ccccc2Cl)nc1` the figure was 10.5%; with `Cc1c(C(=O)NCCN2CCOCC2)sc2nc(-c3ccc(F)cc3)cn12`, -1.49%.
Then `O=C(CSc1nnc(NC(=O)C2CCC2)s1)NC1CC1`, with 11.3%.
As to `COC(=O)CN1C(=O)[C@H]2[C@@H](/C=C/c3ccccc3)N3C(=O)CN(Cc4ccccc4)C(=O)[C@@]3(C)[C@H]2C1=O`, the “hERG current change (%, negative = inhibition) at 1uM” value is on record as -2.29%.
In the case of `CCSc1ccc(-c2nn(-c3ccccc3)cc2/C=C(/C#N)C(=O)NC)cc1`, the “hERG current change (%, negative = inhibition) at 1uM” value was found to be 7.23%.
For `CCN(CC)c1ccc(N2C(=O)c3ccccc3C2=O)cc1`, the “hERG current change (%, negative = inhibition) at 1uM” value came to 1.78%.
With `Cc1cc(C)n(CCNC(=O)CCc2nnc(CCc3ccccc3)o2)n1`, the “hERG current change (%, negative = inhibition) at 1uM” value stood at 12.1%.
Turning to `CC(C)(C)NC(=O)CSc1nnc(-c2ccccn2)n1-c1ccccc1`, the “hERG current change (%, negative = inhibition) at 1uM” value was 12.5%.
For the molecule `COc1ccccc1NC(=O)C(=O)c1cn(CC(=O)N2CCCC2)c2ccccc12`, the “hERG current change (%, negative = inhibition) at 1uM” value stood at 10.1%.
Regarding `CC(C)NC(=O)C(=O)NCCCOC(C)C`, the “hERG current change (%, negative = inhibition) at 1uM” value was determined as 10.3%.
With `O=c1c2ccccc2ncn1-c1ccc(Cl)cc1[N+](=O)[O-]` the figure was -0.835%; with `Cc1nc(NC(=O)c2ccccc2)sc1-c1csc(NCCc2ccccc2)n1`, 8.09%.
With `CCCOc1ccc(-c2c(C(=O)N/N=C/C3CCCCC3)nnn2-c2nonc2N)cc1`, the “hERG current change (%, negative = inhibition) at 1uM” value worked out at 11.7%.
With `O=C(Oc1coc(CSc2ncccn2)cc1=O)c1cccc([N+](=O)[O-])c1` the figure was -26.4%; with `COc1ccc2c(=O)c(C(=O)NCc3ccccc3)c[nH]c2c1`, 13.3%; with `CCOc1cc(NC(=S)NCCCOC)c(OCC)cc1NC(=O)c1ccco1`, 9.6%.
In the case of `COc1ccc(CNC(=O)Cn2cc3c(n2)CCCCC3)cc1`, the “hERG current change (%, negative = inhibition) at 1uM” value was found to be 5.98%.
With `O=C(Cc1ccccc1)Nc1ccc(NC(=O)C2CCCCC2)nc1`, the “hERG current change (%, negative = inhibition) at 1uM” value is -9.25%.
On to `Cc1cccc(N2C(=O)C(Cc3ccccc3)NC2=S)c1` (stereo not drawn), for which the “hERG current change (%, negative = inhibition) at 1uM” value was determined as 2.4%.
For `O=C(O)c1cc(S(=O)(=O)N2CCOCC2)c[nH]1`, the “hERG current change (%, negative = inhibition) at 1uM” value was 3.31%.
With `O=C(O)C1CCC(CNS(=O)(=O)c2ccc(Br)cc2)CC1` (stereo not drawn) the figure was 12.8%; with `COC(CNC(=S)Nc1ccc([N+](=O)[O-])cc1)OC`, 7.2%.

These data come from PMC4336329 (PLoS ONE, 2015).
